From article PMC4336329 (PLoS ONE, 2015)
Hit rate of the full screen: of about 310,000 compounds, about 14,000 (4.5%) showed an effect of 50% or more. Effects have a minus sign here. The list shows a part of the results.

Each molecule was assayed against human ether-à-go-go-related gene (hERG) potassium channel (human, UniProt Q12809) (assay: primary screen, population patch clamp on CHO cells stably expressing hERG).
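Note: peak tail current of the secondary pulse compared with the same well before compound.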

Chain of human ether-à-go-go-related gene (hERG) potassium channel (Q12809 whole entry, looked up): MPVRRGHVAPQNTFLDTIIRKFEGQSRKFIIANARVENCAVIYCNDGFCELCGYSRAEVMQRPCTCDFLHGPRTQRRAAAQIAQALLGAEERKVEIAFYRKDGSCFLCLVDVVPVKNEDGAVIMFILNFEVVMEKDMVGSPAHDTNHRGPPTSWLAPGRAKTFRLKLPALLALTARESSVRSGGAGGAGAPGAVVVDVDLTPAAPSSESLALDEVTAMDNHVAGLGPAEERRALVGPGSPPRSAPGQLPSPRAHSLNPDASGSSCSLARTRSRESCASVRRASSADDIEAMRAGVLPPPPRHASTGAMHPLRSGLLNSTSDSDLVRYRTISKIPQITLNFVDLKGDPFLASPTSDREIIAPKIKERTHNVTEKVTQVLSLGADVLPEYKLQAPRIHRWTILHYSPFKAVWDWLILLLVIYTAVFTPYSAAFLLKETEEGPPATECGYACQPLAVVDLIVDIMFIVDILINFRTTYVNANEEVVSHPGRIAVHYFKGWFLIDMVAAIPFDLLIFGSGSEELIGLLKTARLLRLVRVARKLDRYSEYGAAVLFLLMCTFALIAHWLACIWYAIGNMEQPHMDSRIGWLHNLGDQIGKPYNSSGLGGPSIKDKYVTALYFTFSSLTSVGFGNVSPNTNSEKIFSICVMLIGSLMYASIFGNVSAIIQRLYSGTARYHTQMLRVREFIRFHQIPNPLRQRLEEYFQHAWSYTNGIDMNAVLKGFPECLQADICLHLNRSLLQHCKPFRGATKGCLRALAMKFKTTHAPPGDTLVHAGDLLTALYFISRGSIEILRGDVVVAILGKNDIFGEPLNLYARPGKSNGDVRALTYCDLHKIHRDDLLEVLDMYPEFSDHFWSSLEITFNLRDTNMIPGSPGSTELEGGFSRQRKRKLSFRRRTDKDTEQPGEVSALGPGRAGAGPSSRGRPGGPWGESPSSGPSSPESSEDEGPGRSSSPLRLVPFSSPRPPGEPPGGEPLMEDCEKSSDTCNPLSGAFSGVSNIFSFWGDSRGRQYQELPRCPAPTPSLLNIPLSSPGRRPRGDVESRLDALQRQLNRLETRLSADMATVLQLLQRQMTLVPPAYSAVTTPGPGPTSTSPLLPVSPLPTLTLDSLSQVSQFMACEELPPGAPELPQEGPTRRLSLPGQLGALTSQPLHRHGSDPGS

Going from `Cc1nnc(SCC(=O)N2CCCC(N3CCN(c4ccc(F)cc4)CC3)C2)o1` (centres unmarked) to `Cc1ccc(N2C(=O)C(Cl)=C(N3CCCCCC3)C2=O)cc1`, the “hERG current change (%, negative = inhibition) at 10uM” value rises from -28.8% to 17.1%.

Going from `Cc1ccc(CNc2ncccc2-c2nc3cc(Cl)ccc3o2)cc1` to `CCc1ccc(-c2cc(C(=O)NN3CCOCC3)c3ccccc3n2)cc1`, the “hERG current change (%, negative = inhibition) at 10uM” value falls from 3.59% to -11.9%.

Going from `CC1CCC(C(C)C)C(OCC(O)CNC(C)c2ccccc2)C1.Cl` (centres unmarked) to `CC1CCC(C(C)C)C(OP(N)(=O)c2ccccc2)C1` (centres unmarked), the “hERG current change (%, negative = inhibition) at 10uM” value falls from 0.875% to -4.93%.

Compared with `CCOC(=O)c1sc(N)c(C#N)c1COC(=O)C1=COCCO1`, `CCOC(=O)c1n[nH]n2c1nc(=S)c1ccccc12` is higher in “hERG current change (%, negative = inhibition) at 10uM” value: 3.69% for the first, 16.1% for the second.

First: CC(=O)N1CCN(CC(=O)Nc2cc(S(=O)(=O)N3CCOCC3)ccc2C)CC1
Second: O=C(O)CC(SCC(=O)Nc1ccc(Cl)c(S(=O)(=O)N2CCOCC2)c1)C(=O)O (centres unmarked)
The “hERG current change (%, negative = inhibition) at 10uM” value of the first is higher: 10.7% for the first, -6.49% for the second.

Compared with `COc1ccc(NC(=S)/N=C(\N)Nc2nc(C)c3ccc(C)cc3n2)cc1`, `COC(=O)c1ccc(OCC(=O)c2ccc(C)c(C)c2)cc1` is lower in “hERG current change (%, negative = inhibition) at 10uM” value: 12.5% for the first, 9.9% for the second.

Compared with `O=C(O)C1CC=CCC1C(=O)Nc1ccc(N2CCN(Cc3ccccc3)CC2)cc1` (centres unmarked), `Cc1ncc(CN2CCCC(C(=O)Nc3ccc(-n4ccnc4C)cc3)C2)cn1` (centres unmarked) is higher in “hERG current change (%, negative = inhibition) at 10uM” value: 7.25% for the first, 12.8% for the second.

First: COc1ccc(OC)c(NC(=O)c2cc(-c3cc(C)c(C)cc3O)n[nH]2)c1
Second: COc1ccc(-c2cn[nH]c2-c2ccc(O)cc2O)cc1OC
The “hERG current change (%, negative = inhibition) at 10uM” value of the first is higher: 28.7% for the first, 9.8% for the second.

Compared with `O=C1CCC(C(=O)N2CCC(CO)CC2)CN1Cc1ccc(Cl)cc1` (centres unmarked), `CCOC(=O)N1CCC(N(C(=O)Nc2ccc(CC)cc2)C(C)CC)CC1` (centres unmarked) is lower in “hERG current change (%, negative = inhibition) at 10uM” value: 13.5% for the first, -16.9% for the second.

First: COc1cc(NC(=O)CCNC(=O)Cn2cnc3sc4c(c3c2=O)CCCC4)cc(OC)c1OC
Second: C=CCn1c(SCC(=O)N(C)C)nc2sc3c(c2c1=O)CCC3
The “hERG current change (%, negative = inhibition) at 10uM” value of the first is higher: 5.48% for the first, -29.8% for the second.

First: CN(C)c1ccc(-c2nc3ccccc3c(=O)[nH]2)cc1
Second: Cc1ccc(C2=NCC(=O)Nc3ccc(Br)cc32)cc1
The “hERG current change (%, negative = inhibition) at 10uM” value of the first is higher: 8.36% for the first, -17.1% for the second.

First: CN1CCN(CCCNC(=O)c2ccc(CSCc3cccc(Cl)c3)o2)CC1
Second: CC(C)CCNC(=O)c1ccc(CSCc2cccc(F)c2)o1
The “hERG current change (%, negative = inhibition) at 10uM” value of the first is lower: -40.2% for the first, -25.9% for the second.

Compared with `COc1cc(/C=N/Nc2ccnc(=O)[nH]2)ccc1O`, `Cn1c(=O)c2c(O)cc(=O)[nH]c2n(-c2ccccc2)c1=O` is higher in “hERG current change (%, negative = inhibition) at 10uM” value: 9.52% for the first, 11.3% for the second.

Compared with `COc1ccc(C(=O)NCC(C)NC(=O)c2ccc(OC)cc2)cc1` (centres unmarked), `COc1ccc(C(=O)NC(=S)NNC(=O)CCc2ccccc2)cc1` is higher in “hERG current change (%, negative = inhibition) at 10uM” value: 10.5% for the first, 22.6% for the second.

First: CN(Cc1ccco1)C(=O)c1ccc(N2CCCC2=O)cc1
Second: CS(=O)(=O)N(CC(=O)N1CCc2ccccc2C1)c1cccc(Br)c1
The “hERG current change (%, negative = inhibition) at 10uM” value of the first is higher: 14.3% for the first, -37.3% for the second.

Going from `CCOCCn1c(COc2ccccc2)nc2ccccc21` to `CCOC(=O)Cn1c(=N)n(CCOc2ccc3ccccc3c2)c2ccccc21.Cl`, the “hERG current change (%, negative = inhibition) at 10uM” value falls from -33.6% to -75.3%.

Compared with `COc1ccc(Nc2cc(C(=O)N3CCc4ccccc4C3)c3ccccc3n2)c(OC)c1`, `O=C(Nc1cccc([N+](=O)[O-])c1)N1CCc2ccccc2C1` is lower in “hERG current change (%, negative = inhibition) at 10uM” value: 6.56% for the first, -25.7% for the second.

Going from `COC(=O)c1ccccc1NC(=O)CSc1n[nH]c(-c2cccnc2)n1` to `CS(=O)(=O)N(CC(=O)Nc1ccccc1C(=O)N1CCOCC1)c1cccc([N+](=O)[O-])c1`, the “hERG current change (%, negative = inhibition) at 10uM” value falls from 4.96% to -18.5%.

Compared with `C=CCn1c(CNc2ccc(C)cc2)nnc1SCC(=O)N/N=C/c1ccc(O)cc1O`, `COc1ccc(NC(=O)CSc2nnc(Cc3cccn3C)n2CCc2ccccc2)cc1OC` is higher in “hERG current change (%, negative = inhibition) at 10uM” value: -3.99% for the first, -1.16% for the second.

Compared with `COc1cc(OCC(=O)NC(C)C)cc2c1C(=O)O[C@@H](C)CCCC(=O)CCCCC2`, `COc1ccc(C(c2nnnn2C2CCCCC2)N2CCN(C)CC2)c(OC)c1` (centres unmarked) is lower in “hERG current change (%, negative = inhibition) at 10uM” value: 6.06% for the first, -4.87% for the second.

Compared with `O=C(NNC1CC(c2ccccc2)=NN1C(=O)c1ccccc1)c1ccccc1` (centres unmarked), `CCC/C(=N\NC(=O)c1ccccc1C)c1ccccc1` is higher in “hERG current change (%, negative = inhibition) at 10uM” value: -12% for the first, 3% for the second.

First: C=CCN(c1ccccc1)S(=O)(=O)c1cc(C(=O)NC2=NCCS2)ccc1Cl
Second: CS(=O)(=O)N(CC(=O)N/N=C/c1ccccc1C(=O)O)c1cccc(Cl)c1Cl
The “hERG current change (%, negative = inhibition) at 10uM” value of the first is higher: 63.3% for the first, -2.53% for the second.

Compared with `O=C(N/N=C/c1cc(Br)c(Br)o1)c1ccc2c(c1)OCCO2`, `CC(=O)N1Cc2cc([N+](=O)[O-])ccc2Oc2ccccc21` is lower in “hERG current change (%, negative = inhibition) at 10uM” value: 2.08% for the first, -17.7% for the second.

Going from `Cc1[nH]n(C(N)=S)c(=O)c1N=Nc1cccc(C(F)(F)F)c1` to `CC(C)N(Cc1nccn1C)C(=O)CC1C(=O)NCCN1Cc1ccccc1C(F)(F)F` (centres unmarked), the “hERG current change (%, negative = inhibition) at 10uM” value falls from 24.4% to 4.73%.

First: O=C(CC12CC3CC(CC(C3)C1)C2)NCC(=O)OCc1cc(=O)oc2ccc3ccccc3c12
Second: C[C@@H](CN1C(=O)C(=O)NC[C@@H]1C)NC(=O)CC12CC3CC(CC(C3)C1)C2
The “hERG current change (%, negative = inhibition) at 10uM” value of the first is higher: 18.7% for the first, 11.7% for the second.

First: CC(C)(C)c1ccc(OCCCC(=O)N2CCOCC2)cc1
Second: Cc1cc(OCC(=O)N2CCCC2)cc(C)c1Cl
The “hERG current change (%, negative = inhibition) at 10uM” value of the first is higher: -4.06% for the first, -10.5% for the second.

Going from `CCn1c(SCC(=O)OC)nc2sc3c(c2c1=O)CC(C)(C)OC3` to `Cc1cc(=O)n2nc(N3CCC(C(=O)NCCc4ccccc4)CC3)sc2n1`, the “hERG current change (%, negative = inhibition) at 10uM” value falls from 1.06% to -10.1%.

First: O=C(C1CC1)N1CCN(c2ccc([N+](=O)[O-])cc2-n2cccc2)CC1
Second: Cc1ccccc1N1CCN(CC(=O)Nc2nccs2)CC1
The “hERG current change (%, negative = inhibition) at 10uM” value of the first is lower: -31% for the first, -2.21% for the second.

Going from `COc1ccccc1N(CC(=O)NC(C)(C)C)C(=O)Cn1nnc(-c2ccc(C)o2)n1` to `CCN(C(=O)CSc1nnc(-c2ccncc2)o1)c1ccccc1`, the “hERG current change (%, negative = inhibition) at 10uM” value rises from 1.37% to 3.61%.

Compared with `CN(Cc1ccc(Cl)cc1Cl)C(=O)CN1C(=O)NC2(CCCC2)C1=O`, `CCOc1ccc(CC2CCC(=O)NC2=O)cc1` (centres unmarked) is higher in “hERG current change (%, negative = inhibition) at 10uM” value: -26.6% for the first, 3.09% for the second.

Compared with `COc1ccc(NC(=S)NC2CCS(=O)(=O)C2)cc1` (centres unmarked), `CCOc1ccc(S(=O)(=O)N/N=C(\C)C2CCCCC2)cc1` is lower in “hERG current change (%, negative = inhibition) at 10uM” value: -0.0205% for the first, -5.56% for the second.

Compared with `Cc1ccc(-c2nc(SCC(=O)N(C)C3CCS(=O)(=O)C3)[nH]c2-c2ccc(C)cc2)cc1` (centres unmarked), `O=C(Nc1ccc(Cl)cc1)N1CCC(c2nc(-c3ccc(F)cc3)no2)CC1` is higher in “hERG current change (%, negative = inhibition) at 10uM” value: -41.3% for the first, 3.09% for the second.

First: NS(=O)(=O)c1ccc(CNC(=O)/C=C/c2ccc(S(=O)(=O)N3CCOCC3)cc2)cc1
Second: C=CCOc1ccc(/C=C/C(=O)OCC(=O)NCc2cccc(OC)c2)cc1
The “hERG current change (%, negative = inhibition) at 10uM” value of the first is higher: 29.5% for the first, 3.49% for the second.

First: C/C=C1/CC(C)C(C)(O)C(=O)OCC2CCN3CCC(OC1=O)C23 (centres unmarked)
Second: CC1(C)C(=O)OC(c2cc(Br)ccc2O)C(C)(C)C1=O (centres unmarked)
The “hERG current change (%, negative = inhibition) at 10uM” value of the first is higher: 17.4% for the first, -0.382% for the second.

Going from `Cc1ccnc(N(C(=O)c2cccs2)C(=O)c2cccs2)c1` to `CC(C)(Cc1ccc(O)cc1)NC(=O)c1ccccc1`, the “hERG current change (%, negative = inhibition) at 10uM” value falls from 13% to -2.85%.

First: COC(=O)NCCOc1cc(C)ccc1C
Second: COCCNC(=O)C(Cc1c[nH]c2ccccc12)NC(=O)OCc1ccccc1 (centres unmarked)
The “hERG current change (%, negative = inhibition) at 10uM” value of the first is lower: -7.49% for the first, -4.52% for the second.

Compared with `CCCn1nnnc1NC(=O)COc1ccc(CC)cc1`, `CCC(C)N(CC(=O)NCc1ccc(OC)cc1)C(=O)c1csnn1` (centres unmarked) is lower in “hERG current change (%, negative = inhibition) at 10uM” value: -3.02% for the first, -18.3% for the second.

First: Cc1ccc(-n2nnnc2C(Cl)(Cl)c2nnnn2-c2ccc(C)cc2)cc1
Second: CCn1c(SCc2ccc(F)cc2)nnc1-c1nn(-c2ccccc2)ccc1=O
The “hERG current change (%, negative = inhibition) at 10uM” value of the first is higher: -10.4% for the first, -35.1% for the second.

Compared with `COc1cc(CCC(C)=O)ccc1OC(=O)c1c(F)cccc1Cl`, `CCOC(=O)c1ccc(CNCc2ccccc2)cc1` is higher in “hERG current change (%, negative = inhibition) at 10uM” value: -24.7% for the first, -4.92% for the second.

First: Cc1c(NC(=O)c2cc(=O)[nH]c3ccccc23)c(=O)n(-c2ccccc2)n1C
Second: O=S(=O)(c1ccccc1)N1CN(Cc2ccc(F)cc2)c2nc3ccccc3nc21
The “hERG current change (%, negative = inhibition) at 10uM” value of the first is higher: 10.5% for the first, -15.6% for the second.

Compared with `CCc1ccc(Nc2cc(C)nc3nc(C)nn23)cc1`, `CC(=O)NC1(c2ccccc2)CCN(c2nc(C)cc(C)n2)CC1` is higher in “hERG current change (%, negative = inhibition) at 10uM” value: -28.8% for the first, 17.8% for the second.

Going from `O=[N+]([O-])c1c(Nc2cccc(O)c2)cc(Cl)c2nonc12` to `Cc1ccc(NC(=O)CN(C)S(=O)(=O)c2cnc[nH]2)cc1C`, the “hERG current change (%, negative = inhibition) at 10uM” value rises from -23.2% to 12.1%.

Compared with `O=C(COC(=O)c1ccc(O)cc1)Nc1ccc(OC(F)F)cc1`, `CN(C)C(=O)COC(=O)c1cccc(S(=O)(=O)N2CC3(C)CC2CC(C)(C)C3)c1` (centres unmarked) is lower in “hERG current change (%, negative = inhibition) at 10uM” value: -32.3% for the first, -40.9% for the second.

First: Clc1ccc(N2CCN(/N=C/c3ccncc3)CC2)cc1
Second: CCC(CO)NCc1ccccc1OC(C)C.Cl (centres unmarked)
The “hERG current change (%, negative = inhibition) at 10uM” value of the first is lower: -7.28% for the first, 11.7% for the second.

With `CCCCCCCCCCn1cc(C(C)=O)c(=O)[nH]c1=O` the “hERG current change (%, negative = inhibition) at 10uM” value was 2.98%.
